Data as given in patent US9745266B2 (THE REGENTS OF THE UNIVERSITY OF COLORADO, A BODY CORPORATE, priority 2013, dated 2017).
At least one read-out could not be matched to a standard name with certainty.

Legend:
MRSA ATCC BAA-44 = assay: Minimum resensitizing concentration (MRC), modified broth microdilution; format: cell-based, S. aureus; conditions: for MRC amox/clav: amoxicillin/clavulanic acid at 4/2 μg/ml; for MRC cefazolin: cefazolin at 8 μg/ml; for MRC methicillin: in presence of methicillin
Procedure: (§1) For these activity tests, AMOXICILLIN® was used in combination with clavulanic acid (a.k.a., AUGMENTIN®), CEFAZOLIN®, and MEROPENEM® (an ultra-broad-spectrum carbapenem). […] To assess activity of each analog as a resistance-modifying agent (RMA), a modified broth microdilution assay was used. Briefly, this involves incubating MRSA with 2-fold serial dilutions of a compound in the presence of each individual antibiotic at its Clinical Laboratory Standards Institutes (CLSI)-defined sensitive concentration. For AMOXICILLIN®/clavulanic acid, this concentration is 4/2 μg/ml (8-fold potentiation), for CEFAZOLIN®, 8 μg/ml (16-fold potentiation) and for MEROPENEM®, 4 μg/ml (4-fold potentiation). Following overnight incubation, plates were examined for bacterial growth, or lack thereof. Compounds were tested at concentrations ranging from 0.5-32 μg/ml. […] The half growth inhibitory concentration (GI50) of each analog was determined by fitting the data using KaleidaGraph (v4.1.1, Synergy Software).
(§2) A modified broth microdilution assay was employed by incubating MRSA (ATCC: BAA-44) with Of1 in 2-fold series dilution in the presence of individual antibiotics at the highest sensitive concentration at 37° C. overnight. […] The MRC values were also determined for another three MRSA strains. […] Furthermore, the mammalian toxicity of Of1 was evaluated using human liver hepatocellular carcinoma HepG2 cell line in CellTiter Glo™ mammalian viability assay (Promega).
(§3) MRC screens were performed as follows: antibiotic MIC values where S. aureus is considered susceptible were determined from the CLSI handbook supplement. Analogs of Of1 were diluted to 5 mg/ml in DMSO. Antibiotic was prepared at twice the intended final concentration in Mueller Hinton Broth (MHB). For amoxicillin/clavulanic acid, the initial concentration was 8/4 μg/ml, for meropenem 8 μg/ml and for cefazolin 16 μg/ml. 50 μl of the antibiotic containing media was added to each well of 96 well plates and 100 μl was added to the top row. 1.28 μl of 5 mg/ml alkaloid solution was added to the top row of each plate to afford a concentration of 64 μg/ml in the top row of each plate and two fold serial dilutions were performed down the columns. Once the plates were prepared, a day culture of MRSA was diluted to OD600 0.002 and 50 μl was added to each well. The final concentration of MRSA was OD600 0.001, the final concentration of amoxicillin/clavulanic acid was 4/2 μg/ml, the final concentration of meropenem was 4 μg/ml the final concentration of cefazolin was 8 μg/ml, and the highest concentration of Of1 analog tested was 32 μg/ml. Plates were incubated overnight at 37° C. with shaking. The MRC value was determined as the concentration of Of1 analog in the presence of antibiotic at which there was no observable overnight growth.

MRSA ATCC 33592 = assay: as above; format: cell-based, S. aureus; conditions: meropenem at 4 μg/ml
Procedure: as §1, §2, §3

Row | Compound | MRC amox/clav (MRSA ATCC BAA-44) [µg/mL] | MRC cefazolin (MRSA ATCC BAA-44) [µg/mL] | MRC methicillin (MRSA ATCC BAA-44) [µg/mL] | MRC meropenem (MRSA ATCC 33592) [µg/mL]
1 | C=C1CCCC2Nc3ccc(Br)cc3C12CCNS(=O)(=O)c1ccc(Cl)cc1Cl (stereo not shown) [Cpd 12j, N-[2-(6-bromo-4-methylidene-2,3,4,4a,9,9a-hexahydro-1H-carbazol-4a-yl)ethyl]-2,4-dichlorobenzene-1-sulfonamide] | 8 | >32 | 32 | 4
2 | C=C1CCCC2Nc3ccc(Br)cc3C12CCNS(=O)(=O)c1ccc(C#N)cc1 (stereo not shown) [Cpd 12k, N-[2-(6-bromo-4-methylidene-2,3,4,4a,9,9a-hexahydro-1H-carbazol-4a-yl)ethyl]-4-cyanobenzene-1-sulfonamide] | 16 | 8 | 16 | 16
3 | C=C1CCCC2Nc3ccc(Br)cc3C12CCNS(=O)(=O)c1ccc(NC(C)=O)cc1 (stereo not shown) [Cpd 12l, N-(4-{[2-(6-bromo-4-methylidene-2,3,4,4a,9,9a-hexahydro-1H-carbazol-4a-yl)ethyl]sulfamoyl}phenyl)acetamide] | >32 | >32 | 32 | 32
4 | C=C1CCCC2Nc3ccc(Br)cc3C12CCNS(=O)(=O)c1ccccn1 (stereo not shown) [Cpd 12m, N-[2-(6-bromo-4-methylidene-2,3,4,4a,9,9a-hexahydro-1H-carbazol-4a-yl)ethyl]pyridine-2-sulfonamide] | 32 | 32 | 32 | 32
5 | C=C1CCCC2Nc3c(F)cc(Br)cc3C12CCNS(=O)(=O)c1ccc(OC)cc1 (stereo not shown) [Cpd 13a, N-[2-(6-bromo-8-fluoro-4-methylidene-2,3,4,4a,9,9a-hexahydro-1H-carbazol-4a-yl)ethyl]-4-methoxybenzene-1-sulfonamide] | 8 | 4 | 4 | 8
6 | C=C1CCCC2Nc3c(F)cc(Br)cc3C12CCNS(=O)(=O)c1ccc(C)cc1 (stereo not shown) [Cpd 13b, N-[2-(6-bromo-8-fluoro-4-methylidene-2,3,4,4a,9,9a-hexahydro-1H-carbazol-4a-yl)ethyl]-4-methylbenzene-1-sulfonamide] | 4 | 4 | 4 | 4
7 | C=C1CCCC2Nc3c(F)cc(Br)cc3C12CCNS(=O)(=O)c1ccc(F)cc1 (stereo not shown) [Cpd 13c, N-[2-(6-bromo-8-fluoro-4-methylidene-2,3,4,4a,9,9a-hexahydro-1H-carbazol-4a-yl)ethyl]-4-fluorobenzene-1-sulfonamide] | 4 | 4 | 4 | 4
8 | C=C1CCCC2Nc3c(F)cc(Br)cc3C12CCNS(=O)(=O)c1ccc(Br)cc1 (stereo not shown) [Cpd 13d, 4-Bromo-N-[2-(6-bromo-8-fluoro-4-methylidene-2,3,4,4a,9,9a-hexahydro-1H-carbazol-4a-yl)ethyl]benzene-1-sulfonamide] | 1 | 1 | 0.25 | 1
9 | C=C1CCCC2Nc3c(F)cc(Br)cc3C12CCNS(=O)(=O)c1ccc(I)cc1 (stereo not shown) [Cpd 13e, N-[2-(6-bromo-8-fluoro-4-methylidene-2,3,4,4a,9,9a-hexahydro-1H-carbazol-4a-yl)ethyl]-4-iodobenzene-1-sulfonamide] | 4 | 2 | 2 | 4
10 | C=C1CCCC2Nc3c(F)cc(Br)cc3C12CCNS(=O)(=O)c1ccc(Cl)c(Cl)c1 (stereo not shown) [Cpd 13f, N-[2-(6-bromo-8-fluoro-4-methylidene-2,3,4,4a,9,9a-hexahydro-1H-carbazol-4a-yl)ethyl]-3,4-dichlorobenzene-1-sulfonamide] | 4 | 4 | 4 | 4
